The full ranking holds about 5,400 compounds; the median of “IFI” is about 2, and the highest 2% start at about 22. The list shows a part of the results.
experiment: NOVARTIS: Inhibition Frequency Index (IFI) - the number of HTS assays where a compound showed > 50% inhibition/induction, expressed as a percentage of the number of assays in which the compound was tested.; assay type: functional

| SMILES | IFI [%] |
| --- | --- |
| O=C(COc1ccc(Cl)cc1)Nc1cccc(-c2nc3ncccc3o2)c1 | 0 |
| CCC(=O)NCc1nnc(SCc2cccc(C(F)(F)F)c2)n1-c1cccc(OC)c1 | 0.885 |
| CCCN(CCC)S(=O)(=O)c1cc(Br)cc2c1N(C(C)=O)CC2 | 0 |
| Cc1cccc(C)c1OCC(=O)Nc1ccccc1O | 0 |
| c1cncc(-c2ncc(-c3cnccn3)c(-c3cccnc3)n2)c1 | 0 |
| OC(CN1CCN(C2c3ccccc3-c3ccccc32)CC1)Cn1c2ccc(Cl)cc2c2cc(Cl)ccc21 (configuration not stated) | 4.62 |
| CCOC(=O)C1=C(C)NC2=C(C(=O)C(C(=O)OC)C(C)C2)C1c1cc(Br)c(OC)c(OC)c1 (configuration not stated) | 4.71 |
| O=C(Cc1ccc(F)cc1Cl)N1CCN(c2cccc3c2C(=O)N(Cc2ccccn2)C3=O)CC1 | 1.72 |
| COc1ccccc1Cn1c(SCc2ccc(Cl)cc2)nc2ccc(Br)cc2c1=O | 0 |
| CCC1CCCCN1CCCNC(=O)c1cn(CC)c(=O)c2cc(OC)c(OC)cc12 (configuration not stated) | 0 |
| CCN1/C(=C/c2[se]c3ccccc3[n+]2CC)C=Cc2cc(OC)ccc21 | 19.6 |
| Cc1cc(-c2ccc(O)c(CN3CCCCCC3)c2)c2ccccc2n1 | 5.13 |
| CCOC(=O)c1c(NC(=O)C(C)Sc2nnc(CNC(=O)c3ccco3)n2-c2cccc(Cl)c2)sc2c1CCCC2 (configuration not stated) | 1.22 |
| OC1(c2ccc3ccccc3c2)c2c(c3ccccc3c3ccccc23)C2=NCCN21 (configuration not stated) | 3.25 |
| Oc1c(CN2CCN(Cc3ccc4cccnc4c3O)CC2)ccc2cccnc12 | 12.8 |
| COc1ccc(-c2nc3cc(Cc4ccc5[nH]c(-c6ccc(OC)cc6)nc5c4)ccc3[nH]2)cc1 | 25.7 |
| Nc1nonc1-n1nnc(C(=O)NN=Cc2cc(Br)cs2)c1-c1ccccc1 | 0 |
| CCCC(C(=O)NC(C)(C)C)N1C(=O)c2cc(NC(C)=O)ccc2NC(=O)[C@@H]1c1ccccc1 (some centres not stated) | 1.28 |
| CC(=O)N(Cc1ccc2c(c1)OCO2)C1CC(=O)N(c2ccccc2)C1=O (configuration not stated) | 0 |
| COc1cccc(NCC(O)Cn2c3ccc(Cl)cc3c3cc(Cl)ccc32)c1 (configuration not stated) | 0.676 |
| CC1(C)CC(NC(=O)C(=O)NC2CC(C)(C)N(O)C(C)(C)C2)CC(C)(C)N1O | 0 |
| COc1cc(CNCCCN(C)C)ccc1OCc1ccc(F)cc1Cl | 7.14 |
| CCCCNc1c2c(c(C#N)c3nc4ccccc4n13)CCC2 | 3.12 |
| COc1cc(C(=O)/C=C/Nc2ccc(N(C)C)cc2)cc(OC)c1OC | 7.69 |

| SMILES | IFI [%] |
| --- | --- |
| CCOc1nc2c(c(=O)n(C)c(=O)n2C)n1Cc1cccc(Br)c1 | 4.54 |
| CN(C)C(=O)NCCCCNc1ccnc2cc(Cl)ccc12 | 0.917 |
| CC1CCCCN1CCCNc1ncc(C(=O)NCCc2ccccc2)c(NCC2CCCO2)n1 (configuration not stated) | 3.81 |
| CCOC(=O)c1ccc(-n2c(C)cc(/C=C3\SC(=Nc4ccc(Cl)cc4)NC3=O)c2C)cc1 | 1.18 |
| O=C(NCc1cccs1)c1ccc(OC2CCN(CC3CCCCC3)CC2)c(Cl)c1 | 4.17 |
| O=C(COC(=O)c1ccc2c(c1)C(=O)N(c1ccc3ccccc3c1)C2=O)c1ccc(Br)cc1 | 0 |
| COc1cc2/c(=N/c3ccc(Br)cc3F)nc[nH]c2cc1OCC1CCN(C)CC1 | 6.82 |
| CC(=O)NC(c1ccc(N(C)C)cc1)c1cc(Cl)c2cccnc2c1O (configuration not stated) | 0 |
| N#CC1=C(N)Oc2c3c(c4ccccc4c2C1c1ccc(F)cc1)C(c1ccc(F)cc1)C(C#N)=C(N)O3 (configuration not stated) | 6.78 |
| COc1ccc(C2NCCc3c2[nH]c2ccccc32)cc1CSc1nc2ccccc2[nH]1 (configuration not stated) | 2.22 |
| COc1ccc(C(=O)N2C(C(=O)NCCC(C)C)CSC2c2ccc(C(C)(C)C)cc2)cc1 (configuration not stated) | 2.17 |
| O=C(CCCCCN1C(=O)c2cccc3cccc(c23)C1=O)NO | 19.4 |
| CC1=C(C(=O)OC(C)C)C(c2ccc([N+](=O)[O-])cc2)C2=C(CC(c3ccc(Cl)cc3)CC2=O)N1 (configuration not stated) | 2.35 |
| CCOC(=O)C1=C(C)NC2=C(C(=O)C(C(=O)OCC)C(c3cccc(OC)c3)C2)C1c1ccc(Br)cc1 (configuration not stated) | 2.33 |
| Cc1cc(N2CCCC2)nc2ccc(NC(=S)NCCN3CCc4ccccc4C3)cc12 | 5.88 |
| c1ccc(CC[n+]2cc(-c3ccccc3)n3c2CCC3)cc1 | 2.44 |
| Cc1nc(N2CCCCC2)c2c(C)c(C(=O)N3CCN(c4cccc(Cl)c4)CC3)sc2n1 | 0 |
| COc1ccc(Nc2nc(-c3cc4cc(OC)ccc4oc3=O)cs2)c(OC)c1 | 0 |
| O=C1CC(c2ccccc2)Oc2ccc(F)cc21 (configuration not stated) | 2.27 |
| O=C(C1CCC(Cn2c(=S)[nH]c3ccccc3c2=O)CC1)N1CC=C(c2ccccc2)CC1 (configuration not stated) | 0 |
| CC(=O)Nc1c(NCc2ccccc2)c2ccccc2sc1=O | 2.17 |
| CCN(CC)C(=O)c1ccc2c(=O)n(Cc3cccc(Br)c3)c(=S)[nH]c2c1 | 0 |
| CN(CCCNc1ccnc2cc(Cl)ccc12)C(=O)c1ccc(C(C)(C)C)cc1 | 7.48 |

— ChEMBL document CHEMBL1156829
